Results are given in words; binding and its absence hold for the method and conditions named. In cells and extracts the contact can be indirect. Some entries that bind do so weakly or less than the wild type.
Tests used:
Test in all cases: co-IP
[1] = target: tripartite-motif family member 25 (TRIM25), wild type (human) (UniProt Q14258)
[2] = target: Ebola virus nucleoprotein (NP) (Ebola virus (EBOV, species Zaire ebolavirus)) (UniProt P18272)
[3] = target: Ebola virus VP35 (Ebola virus (EBOV, species Zaire ebolavirus)) (UniProt Q05127)

The chains behind the UniProt entries cited, without tags or fusion partners.
UniProt Q14258: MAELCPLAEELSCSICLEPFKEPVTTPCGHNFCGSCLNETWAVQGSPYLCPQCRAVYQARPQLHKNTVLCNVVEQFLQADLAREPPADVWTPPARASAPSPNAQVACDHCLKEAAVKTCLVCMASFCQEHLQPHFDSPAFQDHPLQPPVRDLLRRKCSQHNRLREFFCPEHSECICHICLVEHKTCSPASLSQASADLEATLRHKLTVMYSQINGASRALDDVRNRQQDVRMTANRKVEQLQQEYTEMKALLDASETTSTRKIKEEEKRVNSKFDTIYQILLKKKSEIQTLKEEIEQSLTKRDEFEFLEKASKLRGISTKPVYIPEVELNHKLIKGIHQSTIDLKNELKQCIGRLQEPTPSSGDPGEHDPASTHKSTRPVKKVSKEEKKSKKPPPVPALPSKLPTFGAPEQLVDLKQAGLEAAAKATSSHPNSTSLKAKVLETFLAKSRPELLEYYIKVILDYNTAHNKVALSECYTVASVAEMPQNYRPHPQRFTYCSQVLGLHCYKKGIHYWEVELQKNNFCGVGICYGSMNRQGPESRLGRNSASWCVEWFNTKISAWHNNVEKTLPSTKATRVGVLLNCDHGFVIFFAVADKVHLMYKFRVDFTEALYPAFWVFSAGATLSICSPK
UniProt P18272: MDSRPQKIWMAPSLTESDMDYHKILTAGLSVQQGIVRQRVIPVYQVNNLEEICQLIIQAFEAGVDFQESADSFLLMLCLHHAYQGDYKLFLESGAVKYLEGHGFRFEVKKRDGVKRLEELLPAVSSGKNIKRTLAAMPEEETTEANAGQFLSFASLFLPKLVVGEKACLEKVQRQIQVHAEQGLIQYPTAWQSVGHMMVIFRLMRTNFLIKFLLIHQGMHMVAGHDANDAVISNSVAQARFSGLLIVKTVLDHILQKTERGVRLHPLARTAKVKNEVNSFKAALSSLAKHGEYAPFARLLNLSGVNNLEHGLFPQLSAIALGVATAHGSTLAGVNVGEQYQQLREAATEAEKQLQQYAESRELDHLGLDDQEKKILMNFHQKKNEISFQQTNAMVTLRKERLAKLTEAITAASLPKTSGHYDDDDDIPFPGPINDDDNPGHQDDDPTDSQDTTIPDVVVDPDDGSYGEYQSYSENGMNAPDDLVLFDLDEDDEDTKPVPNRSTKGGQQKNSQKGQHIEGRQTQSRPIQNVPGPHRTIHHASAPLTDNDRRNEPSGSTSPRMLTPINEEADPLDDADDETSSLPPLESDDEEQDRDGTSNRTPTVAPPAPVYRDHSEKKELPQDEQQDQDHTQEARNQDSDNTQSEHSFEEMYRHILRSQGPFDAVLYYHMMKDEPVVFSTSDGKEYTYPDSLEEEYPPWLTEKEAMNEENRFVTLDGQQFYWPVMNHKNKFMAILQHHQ
UniProt Q05127: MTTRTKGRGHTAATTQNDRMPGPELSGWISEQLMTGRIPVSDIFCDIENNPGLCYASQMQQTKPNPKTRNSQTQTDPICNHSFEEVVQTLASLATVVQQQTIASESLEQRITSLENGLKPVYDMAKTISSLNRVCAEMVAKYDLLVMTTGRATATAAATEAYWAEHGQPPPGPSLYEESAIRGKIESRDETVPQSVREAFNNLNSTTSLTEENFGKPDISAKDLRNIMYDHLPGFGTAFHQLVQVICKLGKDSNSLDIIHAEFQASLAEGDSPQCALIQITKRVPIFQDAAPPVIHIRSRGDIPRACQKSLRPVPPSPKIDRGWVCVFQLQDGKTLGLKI

| Substance | binding [1] | binding [2] | binding [3] |
| --- | --- | --- | --- |
| zinc-finger antiviral protein, long splice variant (ZAP-L) (from UniProt Q7Z2W4-1 1-902) | binds | – | – |
| tripartite-motif family member 25 (TRIM25), wild type (from UniProt Q14258 1-630) | – | binds | binds |
| Ebola virus nucleoprotein (NP) (from UniProt P18272 1-739) | binds | – | – |
